Source: PubChem BioAssay AID1461 (National Center for Advancing Translational Sciences (NCATS), 2008)
Among all 220,000 compounds or so, about 2,300 (1%) were called active. The inconclusive results got no clear call from the source; some entries with a clear call stand among them for comparison. Calls follow the shape of the dose curve; as a rule, active = well fitted inhibition curve with a large enough effect; inconclusive = small, poorly fitted or top-dose-only effect, or effect the other way; inactive = no such curve, though single readings can be large or run the other way. Potencies of inconclusive entries are left out as doubtful fits.

Target: Neuropeptide S receptor (Homo sapiens) (UniProt Q6W5P4)
Experiment: qHTS Assay for Antagonists of the Neuropeptide S Receptor: cAMP Signal Transduction; also: nearly all actives have a fitted effect of over 50% in size
Conditions: CHO-NPSR cells, cAMP TR-FRET, antagonist mode; activity change, negative = inhibition: at 38.3 µM (top of the series) unless noted
% is scaled to controls: 0 for no effect and ±100 for the full control effect; potency is read from the fitted curve at half-maximal effect; tags tell the direction and shape of the fitted curve.

Sequence of UniProt Q6W5P4 (Q6W5P4 whole entry, looked up): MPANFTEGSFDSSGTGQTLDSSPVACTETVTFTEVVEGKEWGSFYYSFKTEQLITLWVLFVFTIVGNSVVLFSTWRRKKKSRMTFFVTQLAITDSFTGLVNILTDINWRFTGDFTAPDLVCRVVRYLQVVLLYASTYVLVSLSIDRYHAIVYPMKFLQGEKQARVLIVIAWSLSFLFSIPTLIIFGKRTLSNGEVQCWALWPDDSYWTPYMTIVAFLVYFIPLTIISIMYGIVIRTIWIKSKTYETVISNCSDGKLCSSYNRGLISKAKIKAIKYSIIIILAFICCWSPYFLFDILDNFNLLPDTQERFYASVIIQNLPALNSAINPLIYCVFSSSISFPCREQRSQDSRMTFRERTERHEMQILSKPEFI

SMILES	Potency	activity change, negative = inhibition
O=C(OCC(=O)N1CCCC1)c1ccccc1OCc1ccccc1	inconclusive [activator, partial curve]	–
CCCn1c(N2CCN(CC(=O)c3c[nH]c4ccccc34)CC2)nc2c1c(=O)[nH]c(=O)n2C	–	inactive: -7.01% [at 46.1 µM]
CCCNc1nc2c(c(=O)[nH]c(=O)n2C)n1CCCc1ccccc1	–	inactive: -22.2% [at 46.1 µM]
Cc1nonc1C(=O)N/N=C/c1ccc(O)c(O)c1	–	inactive: 22%
O=C(NCc1ccccc1Cl)C1CCCN(S(=O)(=O)c2cnc[nH]2)C1 (stereo unspecified)	–	inactive: 0.21% [at 46.1 µM]
O=c1cc(/C=C/c2ccccc2)oc2ccccc12	active: 5.01 µM	–
CCN(CC)C(=O)c1cc([N+](=O)[O-])cc2c1-c1ccc([N+](=O)[O-])cc1C2=C(C#N)C#N	–	inactive: 14.9% [at 7.67 µM]
COc1ccc2cc3c(N)nn(C(=O)c4cccc([N+](=O)[O-])c4)c3nc2c1	–	inactive: 10.3%
COc1ccc(N=C(NN)c2ccc3ccccc3n2)cc1	–	inactive: -6.55%
O=C(COc1ncnc2scc(-c3ccccc3)c12)NCCN1C(=O)CSC1=O	–	inactive: 0.282%
CCN(CC)S(=O)(=O)c1cccc(C(=O)Nc2sc3c(c2C(N)=O)CCCC3)c1	inconclusive [inhibitor, single point]	–
CC1(C)SC(=S)N(/N=C/c2ccccc2O)C1N(O)C(=O)Nc1ccccc1 (stereo unspecified)	inconclusive [inhibitor, single point]	–
O=C(CN1CCC(n2nnc3cc(C(F)(F)F)ccc32)CC1)Nc1ccc2c(c1)OCCO2	inconclusive [inhibitor, single point]	–
CCOC(=O)c1oc2ccc3c(c2c1C)C(=O)CC1(CCN(C(=O)OCC)CC1)O3	inconclusive [inhibitor, single point]	–
NC(=O)COc1ccc(=O)n(-c2ccccc2)n1	inconclusive [inhibitor, single point]	–
CSc1nc(N)nc(SCC(=O)Nc2cccc(F)c2)c1C#N	–	inactive: -20.7%
N#Cc1ccccc1Sc1ccccc1C(=O)OCc1nnc(-c2ccccc2)o1	inconclusive [inhibitor, single point]	–
CCSCc1nnc(SCC(=O)c2ccc(OC)cc2)n1C	inconclusive [inhibitor, single point]	–

SMILES	Potency	activity change, negative = inhibition
C(=C\c1cccc2ccccc12)/c1nnc(-c2cccs2)o1	inconclusive [inhibitor, partial curve]	–
Cc1ccc(/C=N/NC(=O)CSc2nnc(-c3ccccc3)n2-c2ccc(Cl)cc2)o1	–	inactive: -11.3%
COc1ccc(-c2cc(C3CCN(c4ccc(C(C)=O)cc4[N+](=O)[O-])CC3)[nH]n2)cc1	–	inactive: -14% [at 46.1 µM]
COc1ccc(C2C(C#N)=C(N)N(c3sc4c(c3C#N)CCCC4)C3=C2C(=O)CC(C)(C)C3)cc1 (stereo unspecified)	inconclusive [inhibitor, partial curve]	–
O=c1cc(C(F)(F)F)[nH]c2ccc(OC(F)(F)F)cc12	–	inactive: 3.38% [at 7.67 µM]
COc1ccc(NCc2nnc(SCc3ccccc3)n2-c2ccc(OC)cc2)cc1	inconclusive [inhibitor, single point]	–
CCC(C)NC(=O)CSc1nc(-c2cccs2)cc(C(F)(F)F)n1 (stereo unspecified)	inconclusive [inhibitor, single point]	–
CCc1nc2oc(C(=O)c3ccccc3)c(N)c2c2c1COC(C)(C)C2	inconclusive [inhibitor, single point]	–
CCOc1ccc(C(=O)NC(=S)Nc2ccccn2)cc1[N+](=O)[O-]	inconclusive [inhibitor, single point]	–
Cc1ccc(-c2[nH]nc(N)c2N=Nc2cccc(Cl)c2C)cc1	inconclusive [inhibitor, single point]	–
Cc1ccc(O)c(-c2cc(-c3ccccc3C)[nH]n2)c1	–	inactive: 12.8% [at 46.1 µM]
N=c1n(Cc2ccccc2)c2ccccc2n1CC(O)c1ccco1 (stereo unspecified)	inconclusive [inhibitor, single point]	–
Cc1cc(C)cc(-n2c(C)cc(/C=C3\C(=N)N4N=C(CC(C)C)SC4=NC3=O)c2C)c1	inconclusive [inhibitor, single point]	–
O=C(Cn1nc(-c2ccc(Cl)cc2)ccc1=O)NCCCN1CCN(Cc2ccccc2)CC1	–	inactive: -9.01% [at 46.1 µM]
O=C(Nc1ccccc1N1CCCCC1)c1ccc2nccnc2c1	inconclusive [inhibitor, single point]	–
O=C(NCCc1ccccc1)C1CCC(CNc2nc(=S)[nH]c3ccccc23)CC1 (stereo unspecified)	inconclusive [inhibitor, single point]	–
O=C(CSCc1ccc(Cl)cc1)N1CCN(Cc2ccc3c(c2)OCO3)CC1	inconclusive [inhibitor, single point]	–
COc1ccc(CC(=O)NCc2cn3ccsc3n2)cc1	–	inactive: 6.76% [at 46.1 µM]
